Data from the supplement of paper PMC10126150.
Values marked as one replicate rest on one cluster of the flow cell; about a third of the high ones do not repeat.

The sequences below were run on ATP (assay: switch fluorescence ratio, 500 uM ATP over buffer (Cy3 cluster intensity, sum of 5 cycles each) (fold (ratio)); higher = stronger signal-on switching upon ATP binding; sequences stand for … in TCGTCGGCAGCGTCAGATGTGTATAAGAGACAGTTTTTTTTTTTTTTTTTTTTTTTTT…TC). Conditions: aptamer strand: ATP DNA aptamer (quencher-CACCTGGGGGAGTATTGCGGAGGAAGG + anchor), 100 nM annealed; ATP concentration: 500 uM; one replicate.
How it was run: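 Exposure to 500 uM ATP lasted 15 min at 22 °C before imaging, and a selection-buffer image was taken beforehand, for Cy3-labelled switching-strand clusters on a modified Illumina MiSeq flow-cell annealed to 100 nM quencher-labelled ATP aptamer. Five buffer/ATP cycles were run with NaOH stripping and re-annealing between them. The fluorescence ratio per cluster is summed target-cycle over summed buffer-cycle Cy3 intensity, averaged per switch-domain sequence. Clusters outside 100-1000 RFU were excluded.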
Work on CCTGGGTCT yielded a switch fluorescence ratio of 1.02.
In the case of CCTGGTCGAA, the switch fluorescence ratio is reported as 0.971.
CCTGGTGTGT was tested, and the switch fluorescence ratio was 1.03.
Sequence CCTGTACGTG has a switch fluorescence ratio of 1.03.
In the case of CCTGTCAAGA, the switch fluorescence ratio is reported as 1.16.
In the case of CCTGTGCCAT, the switch fluorescence ratio is reported as 2.21.
For CCTGTGTATT, the switch fluorescence ratio was 0.954.
In the case of CCTGTGTTCT, the switch fluorescence ratio is reported as 0.97.
In the case of CCTGTGTTGC, the switch fluorescence ratio is reported as 1.26.
CCTGTTACTG showed a switch fluorescence ratio of 1.05.
CCTGTTCAGT gave a switch fluorescence ratio of 1.
Work on CCTGTTCTGG yielded a switch fluorescence ratio of 0.972.
For CCTTAAATGG, the switch fluorescence ratio was 1.12.
CCTTAAATTT gave a switch fluorescence ratio of 1.
CCTTAAGCTC was tested, and the switch fluorescence ratio was 3.03.
Work on CCTTAAGTG yielded a switch fluorescence ratio of 1.02.
CCTTAATACA gave a switch fluorescence ratio of 1.13.
CCTTACACCC gave a switch fluorescence ratio of 1.7.
In the case of CCTTACACTG, the switch fluorescence ratio is reported as 1.13.
For CCTTACCCGG, the switch fluorescence ratio was 2.36.
CCTTACTCA showed a switch fluorescence ratio of 1.64.
CCTTAGCGCA was tested, and the switch fluorescence ratio was 2.
CCTTAGGCCT showed a switch fluorescence ratio of 1.04.
With CCTTCATCAT the switch fluorescence ratio was 1.33.
With CCTTCGATGG the switch fluorescence ratio was 1.3.
For CCTTCTGGTG, the switch fluorescence ratio was 2.09.
CCTTGCGGCC was tested, and the switch fluorescence ratio was 1.93.
Sequence CCTTGCGGTT has a switch fluorescence ratio of 1.14.
In the case of CCTTGGAAAG, the switch fluorescence ratio is reported as 1.02.
For CCTTGGTGGG, the switch fluorescence ratio was 1.01.
Work on CCTTGTACAT yielded a switch fluorescence ratio of 1.13.
For CCTTGTGTGT, the switch fluorescence ratio was 1.06.
In the case of CCTTGTTCAG, the switch fluorescence ratio is reported as 1.04.
CCTTTAAGAA gave a switch fluorescence ratio of 0.984.
CCTTTCCCTT gave a switch fluorescence ratio of 1.05.
For CCTTTGAATC, the switch fluorescence ratio was 1.32.
For CCTTTGGCGC, the switch fluorescence ratio was 1.19.
CCTTTGGGTT was tested, and the switch fluorescence ratio was 0.974.
Sequence CCTTTTAAGT has a switch fluorescence ratio of 1.44.
With CCTTTTCCGT the switch fluorescence ratio was 1.31.
CCTTTTGTTT showed a switch fluorescence ratio of 1.05.
CGAAAAAATG gave a switch fluorescence ratio of 1.
For CGAAAAACTC, the switch fluorescence ratio was 1.72.
For CGAAAACCA, the switch fluorescence ratio was 1.03.
In the case of CGAAAATGAT, the switch fluorescence ratio is reported as 0.986.
Work on CGAAACTTA yielded a switch fluorescence ratio of 0.991.
CGAAAGATAT showed a switch fluorescence ratio of 1.
Sequence CGAAAGCGTG has a switch fluorescence ratio of 1.01.
Work on CGAAATAAGG yielded a switch fluorescence ratio of 0.969.
For CGAAATCGTA, the switch fluorescence ratio was 1.05.
CGAAATGGAA showed a switch fluorescence ratio of 1.04.
With CGAAATGTGC the switch fluorescence ratio was 1.02.
In the case of CGAACGAATG, the switch fluorescence ratio is reported as 1.02.
For CGAACGTCTT, the switch fluorescence ratio was 1.06.
With CGAACGTTGC the switch fluorescence ratio was 2.82.
Sequence CGAACTACGC has a switch fluorescence ratio of 2.
For CGAAGAGTGG, the switch fluorescence ratio was 1.04.
In the case of CGAAGCAACG, the switch fluorescence ratio is reported as 2.11.
In the case of CGAAGCCTCC, the switch fluorescence ratio is reported as 4.42.
Sequence CGAAGCGCCT has a switch fluorescence ratio of 1.04.
CGAAGGCATC gave a switch fluorescence ratio of 1.86.
CGAAGGTCGA showed a switch fluorescence ratio of 0.976.
Work on CGAAGTGCCA yielded a switch fluorescence ratio of 1.04.
In the case of CGAATACGCA, the switch fluorescence ratio is reported as 1.15.
With CGAATAGAAA the switch fluorescence ratio was 1.01.
With CGAATGAG the switch fluorescence ratio was 0.982.
CGAATGTTGT was tested, and the switch fluorescence ratio was 0.929.
CGAATGTTTC gave a switch fluorescence ratio of 1.04.
With CGAATTCACC the switch fluorescence ratio was 1.07.
CGAATTGAGG was tested, and the switch fluorescence ratio was 0.982.
With CGAATTGCAT the switch fluorescence ratio was 1.01.
With CGAATTTCAT the switch fluorescence ratio was 0.978.
CGACAAACTA gave a switch fluorescence ratio of 1.12.
CGACACATTG was tested, and the switch fluorescence ratio was 0.979.
In the case of CGACACCAT, the switch fluorescence ratio is reported as 1.07.
With CGACACTCAT the switch fluorescence ratio was 1.04.
CGACAGGGTG gave a switch fluorescence ratio of 1.11.
With CGACCAAAC the switch fluorescence ratio was 3.99.
For CGACCACTAA, the switch fluorescence ratio was 1.14.
For CGACCACTCA, the switch fluorescence ratio was 1.3.
For CGACCGGGCC, the switch fluorescence ratio was 1.04.
For CGACCGTTCG, the switch fluorescence ratio was 0.997.
CGACCGTTTT was tested, and the switch fluorescence ratio was 1.02.
CGACGAACGT was tested, and the switch fluorescence ratio was 1.08.
Sequence CGACGGAGGG has a switch fluorescence ratio of 1.04.
For CGACTCGGTA, the switch fluorescence ratio was 1.07.
CGACTGCGGT showed a switch fluorescence ratio of 1.23.
In the case of CGAGAATGGG, the switch fluorescence ratio is reported as 0.984.
For CGAGACAATT, the switch fluorescence ratio was 1.27.
Work on CGAGAGACTT yielded a switch fluorescence ratio of 1.
CGAGAGCCCG was tested, and the switch fluorescence ratio was 0.94.
CGAGAGCGCA gave a switch fluorescence ratio of 0.936.
CGAGAGTCTT was tested, and the switch fluorescence ratio was 1.01.
For CGAGATATGC, the switch fluorescence ratio was 1.02.
Sequence CGAGCAGGCT has a switch fluorescence ratio of 0.934.
For CGAGCTAAAC, the switch fluorescence ratio was 2.7.
CGAGGATGAG gave a switch fluorescence ratio of 0.976.
Sequence CGAGGCTATC has a switch fluorescence ratio of 3.58.
With CGAGGGGTCA the switch fluorescence ratio was 1.
Sequence CGAGGGGTGT has a switch fluorescence ratio of 0.992.
Sequence CGAGGGTGCC has a switch fluorescence ratio of 1.06.
CGAGGTCCAG was tested, and the switch fluorescence ratio was 0.965.
With CGAGGTTAGC the switch fluorescence ratio was 1.01.
CGAGTAGAT gave a switch fluorescence ratio of 1.04.
For CGAGTCGGCT, the switch fluorescence ratio was 0.975.
CGAGTGAGGT was tested, and the switch fluorescence ratio was 0.991.
For CGAGTTCCTC, the switch fluorescence ratio was 1.01.
CGAGTTGAGC showed a switch fluorescence ratio of 1.01.
CGAGTTTGCA gave a switch fluorescence ratio of 1.
For CGATAATGCG, the switch fluorescence ratio was 1.09.
In the case of CGATACCCTA, the switch fluorescence ratio is reported as 0.989.
Sequence CGATATGAGT has a switch fluorescence ratio of 1.02.
With CGATATGGCA the switch fluorescence ratio was 1.06.
In the case of CGATCACGTG, the switch fluorescence ratio is reported as 1.02.
In the case of CGATCCGGTC, the switch fluorescence ratio is reported as 1.
For CGATGACCTG, the switch fluorescence ratio was 0.971.
In the case of CGATGAGCAT, the switch fluorescence ratio is reported as 1.06.
CGATGATAGT was tested, and the switch fluorescence ratio was 0.993.
In the case of CGATGTAGGG, the switch fluorescence ratio is reported as 0.988.
CGATGTTTGT gave a switch fluorescence ratio of 1.
CGATTCGAAG gave a switch fluorescence ratio of 0.992.
With CGATTCGTGA the switch fluorescence ratio was 0.984.
Sequence CGATTCTGTA has a switch fluorescence ratio of 1.01.
CGATTGCTCT showed a switch fluorescence ratio of 1.04.
In the case of CGATTGTTCC, the switch fluorescence ratio is reported as 1.07.
CGATTTCCGG was tested, and the switch fluorescence ratio was 1.02.
For CGATTTGGTA, the switch fluorescence ratio was 0.992.
CGCAAACCCG showed a switch fluorescence ratio of 1.63.
In the case of CGCAAATGGT, the switch fluorescence ratio is reported as 1.92.
CGCAACATTT showed a switch fluorescence ratio of 1.09.
CGCAACCCGT gave a switch fluorescence ratio of 1.48.
Work on CGCAACGGTT yielded a switch fluorescence ratio of 1.16.
CGCACTAACT gave a switch fluorescence ratio of 1.88.
For CGCACTTTCT, the switch fluorescence ratio was 1.05.
CGCACTTTGA gave a switch fluorescence ratio of 1.08.
CGCAGAGGAT showed a switch fluorescence ratio of 1.02.
CGCAGCTGAA gave a switch fluorescence ratio of 1.87.
Work on CGCAGGGGCG yielded a switch fluorescence ratio of 0.982.
In the case of CGCAGTTCTG, the switch fluorescence ratio is reported as 1.14.
CGCAGTTGTC was tested, and the switch fluorescence ratio was 1.28.
CGCAGTTTCG gave a switch fluorescence ratio of 1.07.
Work on CGCATAATAA yielded a switch fluorescence ratio of 2.17.
CGCATCGGGT was tested, and the switch fluorescence ratio was 1.
CGCATGGGT showed a switch fluorescence ratio of 1.03.
Work on CGCATTCTGT yielded a switch fluorescence ratio of 1.1.
With CGCATTTCTG the switch fluorescence ratio was 1.1.
CGCCAAGGAC showed a switch fluorescence ratio of 1.6.
CGCCAAGTTG gave a switch fluorescence ratio of 1.02.
Work on CGCCAATAAT yielded a switch fluorescence ratio of 1.87.
CGCCACGGGC was tested, and the switch fluorescence ratio was 1.04.
CGCCATGGAG was tested, and the switch fluorescence ratio was 0.993.
CGCCATGTGG was tested, and the switch fluorescence ratio was 0.992.
CGCCATTCTG was tested, and the switch fluorescence ratio was 1.04.
CGCCCAGAAT showed a switch fluorescence ratio of 0.974.
Work on CGCCCCAACA yielded a switch fluorescence ratio of 1.06.
CGCCCCATTT was tested, and the switch fluorescence ratio was 1.01.
CGCCCCCACA gave a switch fluorescence ratio of 1.22.
Sequence CGCCCTGGCA has a switch fluorescence ratio of 1.01.
With CGCCCTTACT the switch fluorescence ratio was 1.59.
In the case of CGCCCTTAGG, the switch fluorescence ratio is reported as 1.05.
Work on CGCCGAAACT yielded a switch fluorescence ratio of 1.08.
CGCCGAAAGT gave a switch fluorescence ratio of 1.02.
For CGCCGCGTTC, the switch fluorescence ratio was 3.93.
Work on CGCCGCTAAG yielded a switch fluorescence ratio of 2.94.
In the case of CGCCGGCAGC, the switch fluorescence ratio is reported as 1.15.
CGCCGGGAAA showed a switch fluorescence ratio of 0.975.
With CGCCGGGCGC the switch fluorescence ratio was 1.02.
CGCCGTAGTG gave a switch fluorescence ratio of 1.01.
For CGCCTAGATG, the switch fluorescence ratio was 1.02.
For CGCCTCGGCC, the switch fluorescence ratio was 1.04.
CGCCTCTGCC gave a switch fluorescence ratio of 1.35.
With CGCCTGCCAC the switch fluorescence ratio was 1.39.
In the case of CGCCTGCGCT, the switch fluorescence ratio is reported as 1.02.
CGCCTTAGTA was tested, and the switch fluorescence ratio was 1.01.
Sequence CGCCTTATTC has a switch fluorescence ratio of 1.1.
CGCCTTCCAG was tested, and the switch fluorescence ratio was 1.3.
CGCCTTCCTA showed a switch fluorescence ratio of 2.07.
CGCCTTTACG was tested, and the switch fluorescence ratio was 1.07.
For CGCGAGTCTC, the switch fluorescence ratio was 1.31.
CGCGATAGAG gave a switch fluorescence ratio of 1.01.
CGCGCATTTT was tested, and the switch fluorescence ratio was 1.04.
CGCGCCAGGG gave a switch fluorescence ratio of 1.21.
Sequence CGCGCGTCCT has a switch fluorescence ratio of 1.04.
CGCGCTGGGA gave a switch fluorescence ratio of 1.01.
For CGCGGATATA, the switch fluorescence ratio was 1.06.
For CGCGGCAACG, the switch fluorescence ratio was 0.994.
Work on CGCGGCGAGC yielded a switch fluorescence ratio of 1.01.
In the case of CGCGGGAGCT, the switch fluorescence ratio is reported as 1.06.
Sequence CGCGGGAGTG has a switch fluorescence ratio of 1.02.
CGCGGGTGTC gave a switch fluorescence ratio of 1.04.
With CGCGGGTTA the switch fluorescence ratio was 0.997.
In the case of CGCGGTGCCG, the switch fluorescence ratio is reported as 0.949.
For CGCGGTGTAT, the switch fluorescence ratio was 1.01.
CGCGGTGTTG gave a switch fluorescence ratio of 1.02.
CGCGTACGCA showed a switch fluorescence ratio of 0.985.
For CGCGTATAAG, the switch fluorescence ratio was 1.01.
CGCGTCTGTA gave a switch fluorescence ratio of 1.04.
Sequence CGCGTGCCGG has a switch fluorescence ratio of 0.973.
For CGCGTGGGGA, the switch fluorescence ratio was 1.02.
CGCGTGTGT gave a switch fluorescence ratio of 1.05.
